Results as given in the supplement of paper PMC9446081.
Out of some 39,000 compounds screened, about 220 (0.56%) showed activity. Some of the results follow.

test system: Escherichia coli K-12 BW25113; assay: relative growth (OD600 normalised to plate interquartile mean) (fraction); higher = less growth inhibition, active = 0.2 or less; details: 50 µM; LB; incubation time: overnight (16-24 h)
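Also: static incubation at 37 °C against the wild-type strain, values averaged over two biological replicates.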

Compound	relative growth
C[C@@H]1CCCCO[C@@H](CN(C)C(=O)CCCN(C)C)[C@H](C)CN([C@H](C)CO)C(=O)c2cc(NC(=O)Nc3ccc(C(F)(F)F)cc3)ccc2O1	inactive: 0.955
CC(C)NC(=O)N(C)C[C@@H]1Oc2ccc(NC(=O)CCC(F)(F)F)cc2CC(=O)N([C@H](C)CO)C[C@H]1C	inactive: 1.02
C[C@@H]1CCCCO[C@H](CN(C)C(=O)CCCN(C)C)[C@H](C)CN([C@H](C)CO)C(=O)c2cc(NS(C)(=O)=O)ccc2O1	inactive: 1.01
C[C@@H]1CN([C@@H](C)CO)C(=O)c2cccc(NC(=O)C3CC3)c2O[C@H]1CN(C)Cc1ccc(-c2ccccc2)cc1	inactive: 0.99
COc1cccc2c1C(=O)c1c(O)c3c(c(O)c1C2=O)C[C@@](O)(C(C)=O)C[C@@H]3O[C@H]1C[C@H](N)[C@H](O)[C@H](C)O1	inactive: 1
COc1ccc(S(=O)(=O)Nc2ccc3c(c2)C(=O)N([C@H](C)CO)C[C@H](C)[C@H](CN(C)Cc2ccc4c(c2)OCO4)OCCCC[C@@H](C)O3)cc1	inactive: 0.955
COc1ccc(S(=O)(=O)N(C)C[C@@H]2OCc3cnnn3CCCC(=O)N([C@H](C)CO)C[C@@H]2C)cc1	inactive: 0.991
C[C@@H]1CN([C@H](C)CO)C(=O)c2cc(NC(=O)C3CCCCC3)ccc2O[C@@H](C)CCCCO[C@@H]1CN(C)S(=O)(=O)c1cccs1	inactive: 0.933
C=CC(=O)NCCN1CCOCC1	inactive: 0.994
C[C@@H]1CN([C@@H](C)CO)C(=O)c2cc(N(C)C)ccc2O[C@@H](C)CCCCO[C@@H]1CN(C)Cc1ccc(C(F)(F)F)cc1	inactive: 0.975
C[C@@H]1CN([C@H](C)CO)C(=O)c2c(c3ccccc3n2C)-c2ccccc2CO[C@@H]1CN(C)S(=O)(=O)c1cn(C)cn1	inactive: 0.996
CCCN(C)C[C@H]1OCCCC[C@@H](C)Oc2ccc(NS(=O)(=O)c3cn(C)cn3)cc2C(=O)N([C@@H](C)CO)C[C@@H]1C	inactive: 0.983
COc1cccc([C@@H](N)c2ccccc2)c1	inactive: 0.981
O=C(N[C@@H]1CC[C@H](CCNS(=O)(=O)c2ccccc2)O[C@H]1CO)c1cnccn1	inactive: 0.946
Cc1ccc(S(=O)(=O)Nc2cccc3c2O[C@@H](CN(C)Cc2ccc(Cl)c(Cl)c2)[C@H](C)CN([C@@H](C)CO)C3=O)cc1	inactive: 1.03
CC(C)c1cc(N2CC[C@@H](N)C2)nc(N)n1	inactive: 0.977
C[C@@H]1CN([C@H](C)CO)C(=O)c2cc(NC(=O)Nc3ccc4c(c3)OCO4)ccc2O[C@@H](C)CCCCO[C@@H]1CN(C)C(=O)Cc1ccccc1	inactive: 1.01
C[C@H]1CN([C@@H](C)CO)C(=O)c2cc(NC(=O)CCCN(C)C)ccc2O[C@H]1CN(C)Cc1ccc(Oc2ccccc2)cc1	inactive: 0.945
COCCO[C@H]1CCN[C@H]1Cc1cnn(C)c1	inactive: 1.01

Compound	relative growth
C[C@H](O)C#Cc1ccc2c(c1)O[C@@H](CN(C)C(=O)c1ccncc1)[C@@H](C)CN([C@H](C)CO)S2(=O)=O	inactive: 0.986
C[C@H](CO)N1C[C@H](C)[C@@H](CN(C)Cc2ccc(Oc3ccccc3)cc2)Oc2c(NC(=O)Nc3ccc(F)cc3)cccc2C1=O	inactive: 0.942
C[C@@H]1CN([C@@H](C)CO)C(=O)c2cc(NC(=O)CCCCCC(=O)Nc3ccccc3N)ccc2O[C@@H]1CN(C)C(=O)Nc1ccc(C(F)(F)F)cc1	inactive: 0.976
O=C(NCCCO)c1cc2ccccc2oc1=O	inactive: 0.948
C[C@H]1CN([C@@H](C)CO)C(=O)c2cc(NS(=O)(=O)c3cn(C)cn3)ccc2O[C@H]1CN(C)C(=O)Nc1ccc2c(c1)OCO2	inactive: 0.98
COc1ccc(S(=O)(=O)N(C)C[C@H]2OCCCC[C@H](C)Oc3ccc(NC(=O)NC4CCCCC4)cc3C(=O)N([C@@H](C)CO)C[C@H]2C)cc1	inactive: 0.958
C[C@@H]1CN([C@H](C)CO)C(=O)c2cc(NC(=O)CCC(F)(F)F)ccc2O[C@H]1CN(C)Cc1ccc(Cl)c(Cl)c1	inactive: 1.01
Cc1cc(C(=O)Nc2cccc3c2O[C@H](CN(C)S(C)(=O)=O)[C@@H](C)CN([C@@H](C)CO)C3=O)n(C)n1	inactive: 0.998
COCC(=O)Nc1ccc2c(c1)OC[C@@H](C)N(C(=O)Cc1ccccn1)C[C@H](C)[C@H](OC)CN(C)C2=O	inactive: 1
COc1ccc(S(=O)(=O)N(C)C[C@H]2OCCCC[C@@H](C)Oc3ccc(NC(=O)Nc4c(C)noc4C)cc3C(=O)N([C@@H](C)CO)C[C@@H]2C)cc1	inactive: 0.992
CC(C)CC#Cc1ccc2c(c1)O[C@@H](CN(C)C(=O)c1cccnc1)[C@H](C)CN([C@@H](C)CO)S2(=O)=O	inactive: 0.976
C[C@@H]1CCCCO[C@H](CN(C)Cc2ccncc2)[C@H](C)CN([C@@H](C)CO)C(=O)c2cc(NC(=O)Nc3ccc4c(c3)OCO4)ccc2O1	inactive: 0.967
C[C@@H]1CN([C@H](C)CO)C(=O)c2cccc(NC(=O)Nc3ccc(C(F)(F)F)cc3)c2O[C@H]1CN(C)Cc1ccc(-c2ccccc2)cc1	inactive: 0.987
COc1ccc(CN(C)C[C@H]2OCCCC[C@@H](C)Oc3ccc(NC(=O)NC4CCCCC4)cc3C(=O)N([C@@H](C)CO)C[C@H]2C)cc1	inactive: 0.988
CN(C)C(=O)N1C[C@@H]2COC[C@@]2(CN2CCOCC2)C1	inactive: 0.996
COCC(=O)Nc1ccc2c(c1)OC[C@@H](C)N(Cc1ccccc1OC)C[C@H](C)[C@H](OC)CN(C)C2=O	inactive: 0.981
CN1CCN(C(=O)C[C@@H]2CC[C@H]3[C@H](COc4ccc(NC(=O)C5CCOCC5)cc4C(=O)N3C)O2)CC1	inactive: 1
COc1ccc([C@@H]2CC=CC[C@H](C)Oc3ccccc3C(=O)N(C)[C@H](Cc3ccccc3)C(=O)N2)c(OC)c1	inactive: 0.991
C[C@@H]1CN([C@H](C)CO)C(=O)c2cc(N(C)C)ccc2O[C@@H](C)CCCCO[C@H]1CN(C)C(=O)Nc1ccc(C(F)(F)F)cc1	inactive: 1.04
